In PubChem BioAssay AID540317 (National Center for Advancing Translational Sciences (NCATS), 2011):
Out of some 390,000 compounds screened, about 2,200 (0.56%) were called active. Inconclusive means that the source gave no clear call. Such entries were picked first, then a sample of the others. The call rests on the fitted dose curve; in most records, active means well fitted inhibition curve with a large enough effect; inconclusive means small, poorly fitted or top-dose-only effect; inactive means no such curve, though single readings can be large or run the other way. Potencies beside an inconclusive call are fits to weak or partial responses and may not hold up.

molecular target: Chromobox protein homolog 1 (Homo sapiens) (UniProt P83916); experiment: HTS for Inhibitors of HP1-beta Chromodomain Interactions with Methylated Histone Tails; settings: AlphaScreen HP1-beta / biotin-H3K9me3 peptide binding; series mostly up to 114 µM; further: nearly all actives have a fitted effect of over 70% in size
Chain of UniProt P83916 (P83916 whole entry, looked up): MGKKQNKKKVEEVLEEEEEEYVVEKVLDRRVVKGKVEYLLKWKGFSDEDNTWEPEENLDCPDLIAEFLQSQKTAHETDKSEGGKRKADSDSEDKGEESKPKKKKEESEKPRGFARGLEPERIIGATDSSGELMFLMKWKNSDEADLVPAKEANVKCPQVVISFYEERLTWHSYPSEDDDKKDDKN
Outline: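 AlphaScreen: HP1-beta (50 nM) preformed 30 min with biotin-H3(1-18)K9me3 peptide (50 nM) in PBS pH 7.4, 0.01% Tween-20. Compound added for 30 min at RT, then streptavidin donor/nickel chelate acceptor beads (10 ug/mL) for 30 min.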
Potency means the concentration at half of the fitted maximal effect; tags describe the fitted curve by direction and shape.

Row | Compound | Potency
1 | COc1cccc(OCc2cc(C(=O)NCc3ccc4c(c3)OCO4)no2)c1 | inactive
2 | Cc1ccc(N2CCN(C(=O)c3cccs3)CC2)cc1C | inactive
3 | O=C(c1cccnc1)N(c1cc2sc(=O)oc2c2ccccc12)S(=O)(=O)c1ccccc1 | inconclusive: 17.8 µM [inhibitor, full curve, poor fit]
4 | CSc1ccc(CN2CCN(S(=O)(=O)Cc3ccccc3)CC2)cc1 | inconclusive: 17.8 µM [inhibitor, full curve]
5 | CCOc1ccc(/C=C/C(=O)Nc2sc3c(c2C(=O)OC)C(C(=O)OC)CC3)cc1 (stereo not drawn) | inconclusive: 6.31 µM [inhibitor, full curve]
6 | O=C(Cc1cc(=O)[nH]c(=O)[nH]1)NCc1ccc(Cl)cc1 | inactive
7 | O=C(Cc1ccccc1)N[C@@H]1c2ccccc2CC[C@@H]1OCc1ccccc1 | inactive
8 | COc1cc(C(=O)OCc2cc(=O)n3nc(C4CCCCC4)sc3n2)cc(OC)c1OC | inactive
9 | CCCNS(=O)(=O)c1ccc2nc(NC(=O)c3ccc(F)cc3)sc2c1 | inconclusive: 12.6 µM [inhibitor, partial curve]
10 | COc1cc2cc(CNc3ccccc3)c(=O)n(CC(=O)Nc3ccccc3)c2cc1OC | inactive
11 | N#Cc1c(N2CCCC(O)C2)nc(N)c2c(N)nc3c(c12)CC(=O)N3C12CC3CC(CC(C3)C1)C2 (stereo not drawn) | inconclusive: 17.8 µM [inhibitor, partial curve, poor fit]
12 | COc1ccc(OCCCC(=O)OC(C)C(=O)Nc2ccccc2[N+](=O)[O-])cc1 (stereo not drawn) | inconclusive: 44.7 µM [inhibitor, partial curve]
13 | CC(C)n1cnc2c(N(C)c3ccccc3)nc(N(CCN(C)C)Cc3ccccc3)nc21 | inconclusive: 39.8 µM [inhibitor, partial curve]
14 | CCN1CCCc2cc(CN(CCN3CCOCC3)C(=S)Nc3cccc(C)c3)ccc21 | inconclusive: 17.8 µM [inhibitor, full curve]
15 | Cc1ccc(Nc2c(-c3ccc(N(C)C)cc3)nc3nc[nH]n23)cc1 | inconclusive: 3.55 µM [inhibitor, full curve]
16 | O=C(CCCc1nc2ccccc2s1)NCc1ccccc1 | inactive
17 | Cc1ccc(CN2CCN(Cc3ccccc3C(F)(F)F)CC2)cc1 | inconclusive: 28.2 µM [inhibitor, partial curve]
18 | Cc1cc(C)cc(C(=O)N2CCCCCC2)c1 | inconclusive: 25.1 µM [inhibitor, single point]
19 | C/C(Cl)=C\Cn1c(O)c(N=NC(N)=S)c2cc(Br)ccc21 | inconclusive: 14.1 µM [inhibitor, full curve]
20 | Cc1cccc(N=Nc2c(C)nn(-c3ccccc3)c2N)c1C | inconclusive: 15.8 µM [inhibitor, full curve, poor fit]
21 | CCCn1ccc2c(OCC(=O)Nc3cc(C)ccc3C)cccc2c1=O | inactive
22 | COC(=O)CCNCCSc1nnc(-c2ccco2)n1Cc1ccccc1 | inconclusive: 17.8 µM [inhibitor, single point]
23 | CCCCOC(=O)CCCN1C(=O)/C(=C2\SC(=S)N(CCCC(=O)OCCCC)C2=O)SC1=S | inconclusive: 3.98 µM [inhibitor, partial curve, poor fit]

Row | Compound | Potency
24 | CCOC(=O)C1CCCN(CC(=O)c2ccc(F)cc2)C1 (stereo not drawn) | inconclusive: 17.8 µM [inhibitor, full curve]
25 | CCOC(=O)C1CCN(C(=O)CSc2ccccc2)CC1 | inconclusive: 56.2 µM [inhibitor, partial curve, poor fit]
26 | Cc1ccc(N(CC(=O)N2CCOCC2)S(C)(=O)=O)cc1 | inactive
27 | CC1(C)CNC(=O)CC(C)(C)N1O | inconclusive: 31.6 µM [inhibitor, single point]
28 | O=S(=O)(c1ccccc1)c1nnn2c1nc(NC1CCCCC1)c1sccc12 | inactive
29 | CCCCn1cc(S(=O)(=O)c2ccc(OC)cc2)c(=O)c2cc(CC)ccc21 | inactive
30 | Oc1ccc(-c2cn3ccccc3n2)cc1O | inconclusive: 89.1 µM [inhibitor, single point]
31 | Cc1ccc(NC(=O)CSc2nc(=O)n(CCN3CCOCC3)c3c2CCC3)c(C)c1 | inactive
32 | Cc1ccc(OCC(=O)Nc2nnc(S(=O)(=O)N3c4ccccc4CC3C)s2)cc1 (stereo not drawn) | inconclusive: 20 µM [inhibitor, full curve]
33 | COc1ccc(OC)c(NC(=S)NCCSc2ccc(C)cc2)c1 | inconclusive: 17.8 µM [inhibitor, full curve]
34 | O=C(CNCC1CCCO1)NCc1ccco1 (stereo not drawn) | inconclusive: 56.2 µM [inhibitor, single point]
35 | CCOc1ccc(CN2CCN(C(=O)c3cccc4ccccc34)CC2)cc1 | inconclusive: 14.1 µM [inhibitor, partial curve, poor fit]
36 | COc1cc(/C=C2\CC/C(=C\c3cc(OC)c(O)c(OC)c3)C2=O)cc(OC)c1O | inconclusive: 20 µM [inhibitor, full curve, poor fit]
37 | CC(NCc1ccccc1Cl)C(=O)Nc1ccc(S(=O)(=O)N2CCCC2)cc1 (stereo not drawn) | inconclusive: 44.7 µM [inhibitor, partial curve]
38 | Cc1cccc(NCC(=O)N/N=C\c2cccn2C)c1 | inconclusive: 50.1 µM [inhibitor, partial curve, poor fit]
39 | CCN(CC)c1ccc(N=CN2CCOCC2)cc1 | inconclusive: 50.1 µM [inhibitor, partial curve]
40 | COc1ccc(Nc2cccc3ccccc23)cc1 | inconclusive: 50.1 µM [inhibitor, partial curve]
41 | Cc1cc(SCNC(=O)c2ccccc2)ncn1 | inconclusive: 89.1 µM [inhibitor, single point]
42 | O=C1/C(=C\c2ccc(O)c(O)c2)C(c2ccccc2)=NN1c1ccccc1 | inconclusive: 8.91 µM [inhibitor, partial curve]
43 | COC(=O)[C@]1(CC(C)C)N[C@H](c2ccc(-c3ccc4c(c3)OCO4)cc2)[C@@H]2C(=O)N(C)C(=O)[C@@H]21 | inconclusive: 3.55 µM [inhibitor, partial curve, poor fit]
44 | CCN1C(=NCc2cc(OC)c(OC)c(OC)c2)N[C@@H](c2ccccc2)C(C(=O)OC)=C1C | inconclusive: 50.1 µM [inhibitor, partial curve, poor fit]
45 | O=C(Cc1ccc(Cl)cc1Cl)Nc1cccc(S(=O)(=O)Nc2ccccc2F)c1 | inconclusive: 25.1 µM [inhibitor, partial curve, poor fit]
46 | O=C(NCc1ccco1)C1CC(=O)N(c2ccc(O)cc2)C1 (stereo not drawn) | inactive

Row | Compound | Potency
47 | O=C(N/N=C/c1cccnc1)c1cccs1 | inactive
48 | CC(=O)NC(Cc1cccc(F)c1)C(=O)NC1CCN(C(=O)c2ccc(C)cc2)CC1 (stereo not drawn) | inactive
49 | Cc1cc(Br)ccc1OCCCCNCCO | inconclusive: 79.4 µM [inhibitor, partial curve]
50 | COc1ccc(NC(=O)C2CCN(S(=O)(=O)c3ccc4[nH]c5c(c4c3)CCCCC5)CC2)cc1 | inconclusive: 20 µM [inhibitor, partial curve, poor fit]
51 | O=C1/C(=C\c2ccccc2Cl)SC(=S)N1CCC(=O)N1CCCc2ccccc21 | inconclusive: 8.91 µM [inhibitor, full curve]
52 | COc1cc(-c2cc(OC)c(O)c(OC)c2)cc(OC)c1O | inconclusive: 89.1 µM [inhibitor, partial curve, poor fit]
53 | COc1ccc(NC(=O)CN(C)C(=O)C(C)N2C(=O)c3ccccc3C2=O)cc1 (stereo not drawn) | inactive
54 | O=C(N/C(=C/c1cccs1)c1nc2ccccc2[nH]1)c1ccccc1 | inconclusive: 35.5 µM [inhibitor, single point]
55 | O=C(COC(=O)Cc1ccccc1[N+](=O)[O-])NNC(=O)c1ccc([N+](=O)[O-])cc1 | inactive
56 | NC(=O)c1ccc[n+](CC(=O)NCc2ccc(Cl)cc2)c1 | inactive
57 | CSc1ncc(C(=O)N2CCN(c3cc(C)ccc3C)CC2)c(C)n1 | inactive
58 | Cc1ccc(-n2c(Cc3cccn3C)nnc2SCC(=O)Nc2ccc3c(c2)OCO3)cc1 | inconclusive: 100 µM [inhibitor, single point]
59 | C=CCn1c(SCCN2CCCCC2)nc2c1c(=O)[nH]c(=O)n2C | inactive
60 | CCOc1ccc(-c2ncnn2-c2sc3c(c2C#N)CCCCC3)cc1 | inconclusive: 10 µM [inhibitor, full curve, poor fit]
61 | CCN1/C(=C\C=C2\C(=O)N(C)C(=S)N2C)Sc2ccccc21 | inconclusive: 6.31 µM [inhibitor, partial curve, poor fit]
62 | Oc1ccc2ccccc2c1CN1CCOCC1 | inconclusive: 79.4 µM [inhibitor, single point]
63 | CCCCC(=O)NNC(=S)NC(=O)c1ccc([N+](=O)[O-])cc1 | inconclusive: 3.16 µM [inhibitor, partial curve, poor fit]
64 | COc1ccc(Cn2ccc3nc(C)c(C(=O)Nc4cc(C)cc(C)c4)cc3c2=O)cc1 | inactive
65 | CC(=O)Nc1ccc(N=NN2CCOCC2)cc1 | inconclusive: 79.4 µM [inhibitor, single point]
66 | Cc1cc(C)c(NC(=O)CCn2c(=O)c3cccn3c3ccccc32)c(C)c1 | inactive
67 | COc1ccc(N2CCN(C(CNC(=O)C3CCCCC3)c3ccco3)CC2)cc1 (stereo not drawn) | inconclusive: 79.4 µM [inhibitor, single point]
68 | O=C(NC1CCCCC1)C(c1cccs1)N(CCCN1CCOCC1)C(=O)c1ccc(-c2ccccc2)[nH]1 (stereo not drawn) | inconclusive: 39.8 µM [inhibitor, partial curve, poor fit]
